# Test results taken from the supplement of paper PMC8728848.
# Some of the results follow.
# B1: LecB LY19 (Pseudomonas aeruginosa) (protein)
# chain: MATQGVFTLPANTQFGVTAFANSAGTQTVNVQVNNETVATFTGQSTNNGIIGSKVLNSGGGGKVQILVSVNGRSSDLVSAQVILANELNFALVGSEDSTDNDYNDAVVVINWPLG
# Key:
# Assay in all cases: glycan array binding signal (z-score within array); higher = stronger binding
# Conditions in all cases: glycan notation: IUPAC condensed, linker removed
# [1] = biological target: Fuc(a1-2)Gal6S(b1-3)GlcNAc6S
# Method in brief: (§1)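 The binding signal is a Z-score computed within each array and averaged over linkers. Arrays of the same protein sequence at different concentrations or buffers were also averaged together. Data originate from 3228 arrays in the Consortium for Functional Glycomics database, kept only where the protein sequence was available.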
# Fuc(a1-2)Gal6S(b1-4)Glc = biological target: Fuc(a1-2)Gal6S(b1-4)Glc
# Method in brief: as §1
# [2] = biological target: Fuc(a1-2)Gal6S(b1-4)Glc6S
# Method in brief: as §1
# Fuc(a1-2)[Gal(a1-3)]Gal = biological target: Fuc(a1-2)[Gal(a1-3)]Gal
# Method in brief: as §1
# [3] = biological target: Fuc(a1-2)[Gal(a1-3)]Gal(b1-3)GalNAc
# Method in brief: as §1
# [4] = biological target: Fuc(a1-2)[Gal(a1-3)]Gal(b1-3)GalNAc(b1-3)Gal(a1-4)Gal(b1-4)Glc
# Method in brief: as §1
# [5] = biological target: Fuc(a1-2)[Gal(a1-3)]Gal(b1-3)GlcNAc
# Method in brief: as §1
# [6] = biological target: Fuc(a1-2)[Gal(a1-3)]Gal(b1-3)GlcNAc(b1-2)Man(a1-3)[Fuc(a1-2)[Gal(a1-3)]Gal(b1-3)GlcNAc(b1-2)Man(a1-6)]Man(b1-4)GlcNAc(b1-4)GlcNAc
# Method in brief: as §1
# [7] = biological target: Fuc(a1-2)[Gal(a1-3)]Gal(b1-3)GlcNAc(b1-2)Man(a1-3)[Fuc(a1-2)[Gal(a1-3)]Gal(b1-3)GlcNAc(b1-2)Man(a1-6)]Man(b1-4)GlcNAc(b1-4)[Fuc(a1-6)]GlcNAc
# Method in brief: as §1
# [8] = biological target: Fuc(a1-2)[Gal(a1-3)]Gal(b1-3)GlcNAc(b1-3)GalNAc
# Method in brief: as §1
# [9] = biological target: Fuc(a1-2)[Gal(a1-3)]Gal(b1-3)GlcNAc(b1-6)GalNAc
# Method in brief: as §1
# [10] = biological target: Fuc(a1-2)[Gal(a1-3)]Gal(b1-4)Glc
# Method in brief: as §1
# [11] = biological target: Fuc(a1-2)[Gal(a1-3)]Gal(b1-4)GlcNAc
# Method in brief: as §1
# [12] = biological target: Fuc(a1-2)[Gal(a1-3)]Gal(b1-4)GlcNAc(b1-2)Man
# Method in brief: as §1
# [13] = biological target: Fuc(a1-2)[Gal(a1-3)]Gal(b1-4)GlcNAc(b1-2)Man(a1-3)[Fuc(a1-2)[Gal(a1-3)]Gal(b1-4)GlcNAc(b1-2)Man(a1-6)]Man(b1-4)GlcNAc(b1-4)GlcNAc
# Method in brief: as §1
# [14] = biological target: Fuc(a1-2)[Gal(a1-3)]Gal(b1-4)GlcNAc(b1-2)Man(a1-3)[Fuc(a1-2)[Gal(a1-3)]Gal(b1-4)GlcNAc(b1-2)Man(a1-6)]Man(b1-4)GlcNAc(b1-4)[Fuc(a1-6)]GlcNAc
# Method in brief: as §1
# [15] = biological target: Fuc(a1-2)[Gal(a1-3)]Gal(b1-4)GlcNAc(b1-3)GalNAc
# Method in brief: as §1
# [16] = biological target: Fuc(a1-2)[Gal(a1-3)]Gal(b1-4)GlcNAc(b1-3)[Fuc(a1-2)[Gal(a1-3)]Gal(b1-4)GlcNAc(b1-6)]GalNAc
# Method in brief: as §1
# [17] = biological target: Fuc(a1-2)[Gal(a1-3)]Gal(b1-4)GlcNAc(b1-6)GalNAc
# Method in brief: as §1
# [18] = biological target: Fuc(a1-2)[Gal(a1-3)]Gal(b1-4)[Fuc(a1-3)]Glc
# Method in brief: as §1
# [19] = biological target: Fuc(a1-2)[Gal(a1-3)]Gal(b1-4)[Fuc(a1-3)]GlcNAc
# Method in brief: as §1
# [20] = biological target: Fuc(a1-2)[Gal(a1-3)]Gal(b1-4)[Fuc(a1-3)]GlcNAc(b1-3)GalNAc
# Method in brief: as §1
# [21] = biological target: Fuc(a1-2)[Gal(a1-4)]Gal(b1-4)GlcNAc
# Method in brief: as §1
# [22] = biological target: Fuc(a1-2)[GalNAc(a1-3)]Gal
# Method in brief: as §1
# [23] = biological target: Fuc(a1-2)[GalNAc(a1-3)]Gal(b1-3)GalNAc(a1-3)[Fuc(a1-2)]Gal(b1-4)GlcNAc
# Method in brief: as §1
# [24] = biological target: Fuc(a1-2)[GalNAc(a1-3)]Gal(b1-3)GalNAc(b1-3)Gal(a1-4)Gal(b1-4)Glc
# Method in brief: as §1
# [25] = biological target: Fuc(a1-2)[GalNAc(a1-3)]Gal(b1-3)GlcNAc
# Method in brief: as §1
# [26] = biological target: Fuc(a1-2)[GalNAc(a1-3)]Gal(b1-3)GlcNAc(b1-2)Man(a1-3)[Fuc(a1-2)[GalNAc(a1-3)]Gal(b1-3)GlcNAc(b1-2)Man(a1-6)]Man(b1-4)GlcNAc(b1-4)GlcNAc
# Method in brief: as §1
# [27] = biological target: Fuc(a1-2)[GalNAc(a1-3)]Gal(b1-3)GlcNAc(b1-2)Man(a1-3)[Fuc(a1-2)[GalNAc(a1-3)]Gal(b1-3)GlcNAc(b1-2)Man(a1-6)]Man(b1-4)GlcNAc(b1-4)[Fuc(a1-6)]GlcNAc
# Method in brief: as §1
# [28] = biological target: Fuc(a1-2)[GalNAc(a1-3)]Gal(b1-3)GlcNAc(b1-3)GalNAc
# Method in brief: as §1
# [29] = biological target: Fuc(a1-2)[GalNAc(a1-3)]Gal(b1-3)GlcNAc(b1-6)GalNAc
# Method in brief: as §1
# [30] = biological target: Fuc(a1-2)[GalNAc(a1-3)]Gal(b1-4)Glc
# Method in brief: as §1
# [31] = biological target: Fuc(a1-2)[GalNAc(a1-3)]Gal(b1-4)GlcNAc
# Method in brief: as §1
# [32] = biological target: Fuc(a1-2)[GalNAc(a1-3)]Gal(b1-4)GlcNAc(b1-2)Man
# Method in brief: as §1
# [33] = biological target: Fuc(a1-2)[GalNAc(a1-3)]Gal(b1-4)GlcNAc(b1-2)Man(a1-3)[Fuc(a1-2)[GalNAc(a1-3)]Gal(b1-4)GlcNAc(b1-2)Man(a1-6)]Man(b1-4)GlcNAc(b1-4)GlcNAc
# Method in brief: as §1
# [34] = biological target: Fuc(a1-2)[GalNAc(a1-3)]Gal(b1-4)GlcNAc(b1-2)Man(a1-3)[Fuc(a1-2)[GalNAc(a1-3)]Gal(b1-4)GlcNAc(b1-2)Man(a1-6)]Man(b1-4)GlcNAc(b1-4)[Fuc(a1-6)]GlcNAc
# Method in brief: as §1
# [35] = biological target: Fuc(a1-2)[GalNAc(a1-3)]Gal(b1-4)GlcNAc(b1-3)Gal(b1-4)GlcNAc
# Method in brief: as §1
# [36] = biological target: Fuc(a1-2)[GalNAc(a1-3)]Gal(b1-4)GlcNAc(b1-3)Gal(b1-4)GlcNAc(b1-3)Gal(b1-4)GlcNAc
# Method in brief: as §1
# [37] = biological target: Fuc(a1-2)[GalNAc(a1-3)]Gal(b1-4)GlcNAc(b1-3)GalNAc
# Method in brief: as §1
# [38] = biological target: Fuc(a1-2)[GalNAc(a1-3)]Gal(b1-4)GlcNAc(b1-3)[Fuc(a1-2)[GalNAc(a1-3)]Gal(b1-4)GlcNAc(b1-6)]GalNAc
# Method in brief: as §1
# [39] = biological target: Fuc(a1-2)[GalNAc(a1-3)]Gal(b1-4)GlcNAc(b1-6)GalNAc
# Method in brief: as §1
# [40] = biological target: Fuc(a1-2)[GalNAc(a1-3)]Gal(b1-4)[Fuc(a1-3)]GlcNAc
# Method in brief: as §1
# [41] = biological target: Fuc(a1-2)[GalNAc(a1-3)]Gal(b1-4)[Fuc(a1-3)]GlcNAc(b1-3)GalNAc
# Method in brief: as §1
# [42] = biological target: Fuc(a1-2)[GalNAc(a1-4)]Gal(b1-4)GlcNAc
# Method in brief: as §1
# [43] = biological target: Fuc(a1-2)[GalNAc(b1-3)]Gal
# Method in brief: as §1
binder,measurement,setting,value
B1,glycan array binding signal (z-score),[1],0.163
same,glycan array binding signal (z-score),Fuc(a1-2)Gal6S(b1-4)Glc,0.999
same,glycan array binding signal (z-score),[2],2.08
same,glycan array binding signal (z-score),Fuc(a1-2)[Gal(a1-3)]Gal,1.31
same,glycan array binding signal (z-score),[3],-0.521
same,glycan array binding signal (z-score),[4],-0.512
same,glycan array binding signal (z-score),[5],-0.452
same,glycan array binding signal (z-score),[6],-0.2
same,glycan array binding signal (z-score),[7],0.089
same,glycan array binding signal (z-score),[8],-0.531
same,glycan array binding signal (z-score),[9],-0.528
same,glycan array binding signal (z-score),[10],0.02
same,glycan array binding signal (z-score),[11],0.23
same,glycan array binding signal (z-score),[12],9.41
same,glycan array binding signal (z-score),[13],-0.022
same,glycan array binding signal (z-score),[14],0.437
same,glycan array binding signal (z-score),[15],-0.341
same,glycan array binding signal (z-score),[16],-0.152
same,glycan array binding signal (z-score),[17],-0.52
same,glycan array binding signal (z-score),[18],0.738
same,glycan array binding signal (z-score),[19],1.39
same,glycan array binding signal (z-score),[20],0.554
same,glycan array binding signal (z-score),[21],1.6
same,glycan array binding signal (z-score),[22],0.034
same,glycan array binding signal (z-score),[23],-0.497
same,glycan array binding signal (z-score),[24],-0.53
same,glycan array binding signal (z-score),[25],-0.265
same,glycan array binding signal (z-score),[26],-0.389
same,glycan array binding signal (z-score),[27],0.27
same,glycan array binding signal (z-score),[28],-0.542
same,glycan array binding signal (z-score),[29],-0.528
same,glycan array binding signal (z-score),[30],-0.432
same,glycan array binding signal (z-score),[31],-0.375
same,glycan array binding signal (z-score),[32],-0.497
same,glycan array binding signal (z-score),[33],-0.36
same,glycan array binding signal (z-score),[34],0.035
same,glycan array binding signal (z-score),[35],-0.099
same,glycan array binding signal (z-score),[36],-0.443
same,glycan array binding signal (z-score),[37],-0.512
same,glycan array binding signal (z-score),[38],-0.024
same,glycan array binding signal (z-score),[39],-0.492
same,glycan array binding signal (z-score),[40],0.685
same,glycan array binding signal (z-score),[41],-0.45
same,glycan array binding signal (z-score),[42],2.12
same,glycan array binding signal (z-score),[43],-0.282
